Results are given in words; binding and its absence hold for the method and conditions named. Binding seen in cells or lysates may run through a third protein. Some results given as binding are weak or reduced against the parent protein; the word gives no strength. Tags and fused reporters may be left off the sequences shown. One block for each binder: values may come before it.
Legend:
[1] = molecular target: T1, GFP::Flfl^1–168 (Drosophila melanogaster) (UniProt Q9VFS5); experiment: co-IP; GFP-Trap beads; D.Mel-2 cells expressing FLAG::CENP-C (WT or ΔFIM) transiently co-transfected with GFP-tagged Flfl forms; immunoblot
T1 sequence: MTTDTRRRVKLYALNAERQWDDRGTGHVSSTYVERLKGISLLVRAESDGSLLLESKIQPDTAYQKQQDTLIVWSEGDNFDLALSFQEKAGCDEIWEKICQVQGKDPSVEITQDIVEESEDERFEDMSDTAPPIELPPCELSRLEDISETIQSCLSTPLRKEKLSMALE

[2] = molecular target: T2, GST::FBD^ΔFIM (Drosophila melanogaster) (UniProt Q9VHP9); experiment: pull-down; GST-tagged bait on Glutathione Sepharose 4b, IVTT 35S-Met-labelled prey, 1 h 25 °C, 50 mM HEPES pH 7.4, 150 mM NaCl, 0.1% Triton X-100, 0.5 mg/ml BSA; autoradiography; only the target purified
T2 sequence: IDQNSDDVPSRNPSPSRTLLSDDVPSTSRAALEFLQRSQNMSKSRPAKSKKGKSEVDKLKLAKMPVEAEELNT

[3] = molecular target: T3, GST::CENP-C^FBD (Drosophila melanogaster) (UniProt Q9VHP9); experiment: as above
T3 sequence: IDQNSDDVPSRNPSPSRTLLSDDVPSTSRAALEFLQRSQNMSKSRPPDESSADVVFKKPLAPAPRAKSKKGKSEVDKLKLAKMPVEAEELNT

[4] = molecular target: T4, FLAG::CENP-C^FBD (Drosophila melanogaster) (UniProt Q9VHP9); experiment: co-IP; FLAG::CENP-C^FBD purified from ~10^9 stably transfected D.Mel-2 cells on anti-FLAG M2 magnetic beads; immunoblot
T4 sequence: T3 sequence

[5] = molecular target: T3, GST::CENP-C^FBD (Drosophila melanogaster); experiment: pull-down; GST::CENP-C^FBD on Glutathione Sepharose 4b incubated with wild-type (Oregon-R) syncytial embryo extract, 3 h 4 °C; Western blot; only the target purified

binding [1]: no binding
B1: FLAG::CENP-C^ΔFIM (protein, UniProt Q9VHP9)
chain: MSKPQNNDTLELDDILSQPVKDKERFAAFMMRKLAENKPAQNDNLFGNFKLDFDLDFEVPLIKKSQAKPKSKLPEVQPLGELVSKNSAATEKVNEPPVDQAPNENVPPRRSPTLSPNNRRSMRRSGNVPGSDKLRRHAIRRRSRSCGRQLLPEFEETVNLTRSISSPVNFLPEISSTPCTEKQKEEVAKNTTRVETDKPAEKPMELSQEPEPENPLQTKVTSPARNPILAAEIEQICKERQSSFHKNVLQLDYSGRAPYSRPPTPSSPSVAGLRRTYTMEKGPAPGQLLLSPSHRYDTPSKMPVVKAKRFNQELMVPDTPERQSHDPAWQSEPQPEFVVPETQPQDLGELVQTLSRSAISPIVVINTSNSNRSVRRDAVAMKSVPTSPVTALSSPPIAPSPRRSAAASPQKSIAQLPRVEENMDAIMTDDESDEHPSTVPLNLAPSGGNTTRQRRLRSSNRARATIESQESSMRLLNLHKSVNAKKSKPRKTAIPLNKAPSAPINGEQFARELTRMSNYEILDLRKRNSLNEIYPLNGHRNHRSEKLILEEEIQRELLRRNLMDEAEGLPKQQSSDDSNEDYIPVPPKTQSLRTKSNDRSQGRGRPRSTRRDLPMTTELVNYLGLSQTLETRRKSSKDGKRCLYTKGSSDHEDNDSLSPVKLPRLSKSIQIVPPPPVSLRYSQSLQNLPCSGKFDFDNVVMAAPPDFHDSVNSDAIEIAPPPPEYVVNTRGRSTSGRKSNKNDLVLPPPGYEGGQEEEHDERPSQPRCTAKELQQSTQNGRRAMENELVPPPIEYVEEENRNNEQSRRSTKNGNLVDRNTHNAVEYCEPPEPPEYDDSDHGQASILRRSGKKLQHSKQSVQKSNKEQIIAPSYENNEDYDSDEEPIYNEEYGKEESQNKNVTRRKSDKDEMASHTLECIEGPDPNWNSSCNKQNRNHQNASKSKENDKLANRSSKSQKLSNPRQNAVGTEKSVALSNRGEECTEKSSDVMESLRVNTPTPPIDQNSDDVPSRNPSPSRTLLSDDVPSTSRAALEFLQRSQNMSKSRPAKSKKGKSEVDKLKLAKMPVEAEELNTTGIRRSKRGQVPLQMSWCHTMDPSKFNFMSGFIEPRSKNSKTKKGNLSKAKKASATKPKPTVEKNLPDNRGPLCSSTPRISEKLPGAIPHSESLGLSTLTWEETEVQAEAEKVPKKRGRPKKAVGGVQTDTEAEPEPEPEPMISSVAPLTSDQEEPDVPDEQAPYTEAALGPVVFSTPLRDEQEEASTKLMQWLRGVGDAPPSASMSDENASVSSANELIFCQVDGIDYAFYNTKEKAMLGYMRFKPYQKRSMKQAKVHPLKLLVQFGEFNVETLAVGEEKEVHSVLRVGDMIEIDRGTRYSIQNAIDKVSVLMCIRS

binding [2]: no binding
binding [3]: binds
B2: ^35S-Met-labelled Flfl^1–168 (IVTT) (domain or fragment, UniProt Q9VFS5 1-168)
chain: T1 sequence
modifications: 35S-methionine labelled

binding [1]: binds
B3: FLAG::CENP-C^WT (protein, UniProt Q9VHP9 1-1411)
chain: MSKPQNNDTLELDDILSQPVKDKERFAAFMMRKLAENKPAQNDNLFGNFKLDFDLDFEVPLIKKSQAKPKSKLPEVQPLGELVSKNSAATEKVNEPPVDQAPNENVPPRRSPTLSPNNRRSMRRSGNVPGSDKLRRHAIRRRSRSCGRQLLPEFEETVNLTRSISSPVNFLPEISSTPCTEKQKEEVAKNTTRVETDKPAEKPMELSQEPEPENPLQTKVTSPARNPILAAEIEQICKERQSSFHKNVLQLDYSGRAPYSRPPTPSSPSVAGLRRTYTMEKGPAPGQLLLSPSHRYDTPSKMPVVKAKRFNQELMVPDTPERQSHDPAWQSEPQPEFVVPETQPQDLGELVQTLSRSAISPIVVINTSNSNRSVRRDAVAMKSVPTSPVTALSSPPIAPSPRRSAAASPQKSIAQLPRVEENMDAIMTDDESDEHPSTVPLNLAPSGGNTTRQRRLRSSNRARATIESQESSMRLLNLHKSVNAKKSKPRKTAIPLNKAPSAPINGEQFARELTRMSNYEILDLRKRNSLNEIYPLNGHRNHRSEKLILEEEIQRELLRRNLMDEAEGLPKQQSSDDSNEDYIPVPPKTQSLRTKSNDRSQGRGRPRSTRRDLPMTTELVNYLGLSQTLETRRKSSKDGKRCLYTKGSSDHEDNDSLSPVKLPRLSKSIQIVPPPPVSLRYSQSLQNLPCSGKFDFDNVVMAAPPDFHDSVNSDAIEIAPPPPEYVVNTRGRSTSGRKSNKNDLVLPPPGYEGGQEEEHDERPSQPRCTAKELQQSTQNGRRAMENELVPPPIEYVEEENRNNEQSRRSTKNGNLVDRNTHNAVEYCEPPEPPEYDDSDHGQASILRRSGKKLQHSKQSVQKSNKEQIIAPSYENNEDYDSDEEPIYNEEYGKEESQNKNVTRRKSDKDEMASHTLECIEGPDPNWNSSCNKQNRNHQNASKSKENDKLANRSSKSQKLSNPRQNAVGTEKSVALSNRGEECTEKSSDVMESLRVNTPTPPIDQNSDDVPSRNPSPSRTLLSDDVPSTSRAALEFLQRSQNMSKSRPPDESSADVVFKKPLAPAPRAKSKKGKSEVDKLKLAKMPVEAEELNTTGIRRSKRGQVPLQMSWCHTMDPSKFNFMSGFIEPRSKNSKTKKGNLSKAKKASATKPKPTVEKNLPDNRGPLCSSTPRISEKLPGAIPHSESLGLSTLTWEETEVQAEAEKVPKKRGRPKKAVGGVQTDTEAEPEPEPEPMISSVAPLTSDQEEPDVPDEQAPYTEAALGPVVFSTPLRDEQEEASTKLMQWLRGVGDAPPSASMSDENASVSSANELIFCQVDGIDYAFYNTKEKAMLGYMRFKPYQKRSMKQAKVHPLKLLVQFGEFNVETLAVGEEKEVHSVLRVGDMIEIDRGTRYSIQNAIDKVSVLMCIRS

binding [4]: binds
binding [5]: binds
B4: Falafel (Flfl), endogenous (protein, UniProt Q9VFS5 1-980)
chain: MTTDTRRRVKLYALNAERQWDDRGTGHVSSTYVERLKGISLLVRAESDGSLLLESKIQPDTAYQKQQDTLIVWSEGDNFDLALSFQEKAGCDEIWEKICQVQGKDPSVEITQDIVEESEDERFEDMSDTAPPIELPPCELSRLEDISETIQSCLSTPLRKEKLSMALESESYIKKLLNLFHVCEDLDNTEGLHHLFEIFKNIFLLNKNALFEIMFADDTIFDVVGCLEYDPSVSQPKKHRQYLKQLAKFREAVPIKNLDLLAKIHQTFRVQYIQDIILPTPSVFVEDNMLNTLSSFIFFNKVEIVTMIQDDERYLLDVFAVLTDPTTGDAKRRDTVLFLKEFCNYAQNLQPQGKDSFYKTLTCLGILQALELTLVMNDKKTKSASIDILTAIVEFSPLVVRNYTLNQANRPEVERMLLNIAIEQMLNDSEPELGIAVQLMGIVKILLEPENMLTEKGDFLNFFYKYSVQTLVAPVILNTIGDRPQNEDYQTAQLLGIVLDILSFCVEHHSYHIKNFLLQKDLLKRILVLMKSTHTFLVLGALRLLRKIIALKDEFYNRHIVKCNLFAPVVDAFIRNNGRYNLLESAILELFEFIKLEDIRTLCVYFVENFSKIFDEIEYVQTFKYLKNRYDQYQDRLKDRDKMENRTDGGLPIIRSGGRFRRDQRQMEEEEEMWFNEEDDFTEEIDTYNNVMKSVSEKNGPQTQNQQKSSPPHSTSPHSGLLGSLSTTASSTATSATSGAPVASGSSSPEAISADEQTQAAVHLAAAALQHHQQQQQQQQQNPFQQQTQPEIAELQQQLSSVEAPQSQELELSQSAAASASPTSSSSSLEASTSSSSASSSSSSSSSSSPPGSSAAASLCDSATVAAVAASQFLSTIATAMAASVTAAAATNSSPSISPAPAVSSPDIENADAQLPPSDDASSPASGEQDANSTEGTSSEADKTTAKKGLVDYESDSGEDDYEEDEYSEGPQAQKRARQA
